Results published in PubChem BioAssay AID504832 (National Center for Advancing Translational Sciences (NCATS), 2011).
Among all 310,000 compounds or so, about 18,000 (5.8%) were called active. This list was built around the results that the source calls inconclusive (neither active nor inactive); the mix of calls is not that of the screen. The call rests on the fitted dose curve; in most records, active means well fitted inhibition curve with a large enough effect; inconclusive means small, poorly fitted or top-dose-only effect, or another doubt; inactive means no such curve, though single readings can be large or run the other way. Potencies of inconclusive entries are left out as doubtful fits.
On the % scale 0 is the no-effect control and ±100 the full control effect; potency means the concentration at half of the fitted maximal effect; tags describe the fitted curve by direction and shape.

Assay: Primary qHTS for delayed death inhibitors of the malarial parasite plastid, 48 hour incubation
Details: P. falciparum luciferase growth in erythrocytes; series mostly up to 28.7 µM
In short: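 Compounds are pin-transferred into medium, infected erythrocytes (2% hematocrit, 0.1% parasitemia final) are added, and plates sit one parasite generation at 37 C in 5% CO2. Detection reagent is then added and luminescence measured.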
For `COc1ccc(C2NCCc3sccc32)cc1` (stereo not given), the Potency was “inactive”.
In the case of `CN1CCN2c3ccc(N)cc3CC3(C(=O)NC(=O)NC3=O)C2C1` (stereo not given), the Potency is reported as inconclusive [inhibitor, partial curve].
For `CC1(C)CC2CC(C)(CN2C(=O)COC(=O)c2ccccc2C(F)(F)F)C1` (stereo not given), the Potency was inconclusive [inhibitor, single point].
With `Cc1ccc(-c2c(C)sc3nc(CN4CCN(CC(=O)NC5CC5)CC4)[nH]c(=O)c23)cc1` the Potency was active: 10.4 µM.
For `CCC(C)N(CC(=O)Nc1cccc(C)c1C)C(=O)CCl` (stereo not given), the Potency was inconclusive [inhibitor, full curve].
For `COc1ccc(CCNC(=O)C(=O)NCC2OCCCN2S(=O)(=O)c2cc(C)ccc2C)cc1` (stereo not given), the Potency was inconclusive [inhibitor, partial curve].
With `COc1cccc(NC(=O)Cn2c3ccc(F)cc3c3nc4n(c(=O)c32)CCCS4)c1` the Potency was inconclusive [inhibitor, single point].
For `COc1ccc(OCCOC(=O)C(C)NS(=O)(=O)c2ccc(NC(C)=O)cc2)cc1` (stereo not given), the Potency was “inactive”.
For `CC(=O)N1CCc2cc(Br)cc(S(=O)(=O)N3CCC(C(=O)O)CC3)c21`, the Potency was inconclusive [inhibitor, partial curve].
In the case of `COc1cccc(NC(=O)CSc2nc(C)cs2)c1`, the Potency is reported as “inactive”.
In the case of `CCOc1ccccc1NS(=O)(=O)c1cn(C)nc1C`, the activity change, negative = inhibition is reported as inactive: 7.63% [at 5.75 µM].
For `Cc1cc(=O)n2c3ccccc3n(CC(O)CN3CCC(C)CC3)c2c1C#N` (stereo not given), the Potency was inconclusive [inhibitor, single point].
In the case of `CN(C[C@H](Cc1ccccc1)N(C[C@@H](CC1CCCCC1)N(CCc1ccccc1)N=O)N=O)N=O`, the Potency is reported as inconclusive [inhibitor, partial curve, poor fit].
With `CCc1ccc(NC(=O)Cn2cc([N+](=O)[O-])nc2C)cc1` the Potency was “inactive”.
For `Cc1ccc(NS(=O)(=O)c2cccc(C(=O)O)c2)cc1S(=O)(=O)N1CCCCC1`, the Potency was inconclusive [inhibitor, partial curve, poor fit].
For `Cc1ccc(NC(=O)COc2ccccc2C(=O)Nc2ccccc2)cc1Cl`, the Potency was inconclusive [inhibitor, partial curve, poor fit].
In the case of `O=C(OCC(=O)N1CCc2ccccc2C1)c1cccs1`, the Potency is reported as active: 1.47 µM.
In the case of `COc1ccc(NC(=O)c2ccc3c(SCC(=O)O)c4c(nc3c2)CCCC4)cc1Cl`, the Potency is reported as inconclusive [inhibitor, partial curve].
With `CC(C)(C)c1ccccc1OCCOCCN1CCCCCC1` the Potency was inconclusive [inhibitor, single point].
In the case of `COc1ccc(N(CC(=O)Nc2cccc(N(C)S(C)(=O)=O)c2)S(=O)(=O)c2ccc(F)cc2)cc1`, the Potency is reported as inconclusive [inhibitor, partial curve].
In the case of `CCOc1nc(NC2CCCC2)nc(N2CCC(C)CC2)n1`, the Potency is reported as inconclusive [inhibitor, partial curve, poor fit].
With `Cc1ccc(C2(CCNS(=O)(=O)c3ccc(C)cc3)CCOC(C(C)C)C2)cc1` (stereo not given) the Potency was inconclusive [inhibitor, single point].
With `CC1CCC(C(C)C)C2=C1C(C#N)(C#N)C(C#N)(C#N)C(c1ccccc1)N2` (stereo not given) the Potency was inconclusive [inhibitor, single point].
For `Cc1cccc(OCCCC(=O)NNC(=O)c2ccc(F)cc2)c1`, the Potency was inconclusive [inhibitor, single point].
With `CNc1ccc(Br)cc1C(O)c1ccccc1` (stereo not given) the Potency was inconclusive [inhibitor, partial curve].
In the case of `C=C(C)C1CC=C(C)/C(=N/NC(=O)COc2ccccc2Cl)C1` (stereo not given), the Potency is reported as inconclusive [inhibitor, single point].
In the case of `CC(=O)c1ccc(NC(=O)COC(=O)C2C3CC4OC(=O)C2C4C3)cc1` (stereo not given), the Potency is reported as “inactive”.
In the case of `CCCC(=O)N(c1ccc(OCC)cc1)S(=O)(=O)c1ccc2c3c(cccc13)C(=O)N2C`, the Potency is reported as inconclusive [inhibitor, single point].
In the case of `C[C@]12CCC(=O)C[C@H]1CC[C@@H]1[C@@H]2CC[C@]2(C)[C@@H](O)CC[C@@H]12`, the Potency is reported as inconclusive [inhibitor, single point].
With `Cc1ccccc1C(=O)NC(=S)N(C)CCc1ccccn1` the Potency was “inactive”.
In the case of `CC(C)(C)c1nnc(NC(=O)CN2C(=O)C3C4C=CC(C4)C3C2=O)s1` (stereo not given), the Potency is reported as inconclusive [inhibitor, partial curve, poor fit].
With `CC(=O)NC(CC(=O)OCC(=O)N1CCN(S(=O)(=O)c2ccc(Cl)cc2)CC1)c1ccccc1` (stereo not given) the Potency was “inactive”.
For `CC1CCN(C(c2ccc(N(C)C)cc2)c2nnnn2Cc2ccccc2)CC1` (stereo not given), the Potency was inconclusive [inhibitor, partial curve, poor fit].
With `O=C(c1ccccc1)c1ccc(NCCCn2ccnc2)c([N+](=O)[O-])c1` the Potency was inconclusive [inhibitor, single point].
With `S=c1nc(-c2ccccc2)n(CCCn2ccnc2)c2c1CCCC2` the Potency was “inactive”.
For `COc1ccccc1CCNC(=O)c1ccoc1C`, the Potency was “inactive”.
In the case of `CN(C)S(=O)(=O)c1ccc(NC(=O)CN2CCCc3ccccc32)cc1`, the Potency is reported as “inactive”.
With `O=C(NC1CCCc2ccccc21)c1cccc(S(=O)(=O)N2CCOCC2)c1` (stereo not given) the Potency was “inactive”.
In the case of `COc1ccc(/C=N/n2cnn(Cc3ccccc3Cl)c2=S)cc1`, the Potency is reported as “inactive”.
In the case of `CCCCn1nc2cc(C(=O)NCCc3cccs3)ccc2c1OCC`, the Potency is reported as inconclusive [inhibitor, single point].
With `CCn1cc(CNC(=O)c2cc(-c3cc(OC)ccc3OC)nc3ccccc23)c(C)n1` the Potency was inconclusive [inhibitor, partial curve].
With `COc1ccc(S(=O)(=O)N2CCC(CN3C(=O)c4cccc5cccc(c45)C3=O)CC2)cc1` the Potency was inconclusive [inhibitor, partial curve, poor fit].
In the case of `COC(=O)c1ccccc1NC(=S)N(Cc1ccc2c(c1)OCO2)Cc1cc2ccc(OC)cc2[nH]c1=O`, the Potency is reported as active: 9.28 µM.
With `CCCC(C)C(=O)Nc1ccc(S(=O)(=O)Nc2nccs2)cc1` (stereo not given) the Potency was “inactive”.
With `COc1ccc(/C=C/C(=O)Nc2cc(F)ccc2C)cc1S(=O)(=O)N1CCOCC1` the Potency was active: 14.7 µM.
For `NNC(=O)c1cc(Br)cs1`, the Potency was “inactive”.
With `CC1=NN(c2ccccc2)C(=O)/C1=C/c1ccc[nH]1` the Potency was “inactive”.
For `CCOC(=O)N1CCC(n2c(SCC(=O)NCc3ccccc3)nc3ccccc3c2=O)CC1`, the Potency was inconclusive [inhibitor, partial curve, poor fit].
With `O=C(CSc1nnc(CN2CCOCC2)n1-c1ccccc1)Nc1ccc(Cl)cc1` the Potency was inconclusive [inhibitor, single point].
With `O=C(Cn1nc(C(F)F)cc1C1CC1)NCCC1=CCCCC1` the Potency was “inactive”.
In the case of `COc1cc(NC(=O)CN(C)Cc2cccc(F)c2)c(C)cc1[N+](=O)[O-]`, the Potency is reported as inconclusive [inhibitor, single point].
In the case of `CC(=O)Nc1sc(N/N=C/c2ccc(N(C)C)cc2)nc1-c1ccc(C)cc1`, the Potency is reported as active: 2.08 µM.
In the case of `CC(C)(C)OC(=O)NC(CO)c1cn([C@@H](Cc2cc3ccccc3[nH]2)C(=O)N2CCN(C(=O)OC(C)(C)C)CC2)nn1` (stereo not given in full), the Potency is reported as inconclusive [inhibitor, partial curve, poor fit].
With `COc1cccc(CNc2nc3ccccc3n2C)c1O` the Potency was “inactive”.
For `O=c1c2ccccc2nc(-c2ccccc2)n1-c1cccc(O)c1`, the Potency was “inactive”.
With `CC1CC(C)CN(C(=O)CSc2nnc(N)s2)C1` (stereo not given) the Potency was “inactive”.
In the case of `O=C(COC(=O)C1CC2CCCC(C1)C2=O)c1cccc(Br)c1` (stereo not given), the Potency is reported as inconclusive [inhibitor, single point].
With `CN1CCN(c2ccc(NC(=O)c3ccc(Cl)cc3)cn2)CC1` the Potency was inconclusive [inhibitor, single point].
In the case of `O=C(c1nc2ccccn2c1CN1CCCC(O)C1)N1CCN(C2CCCCC2)CC1` (stereo not given), the Potency is reported as inconclusive [inhibitor, single point].
In the case of `Cc1ccc(N=C2SC(C(=O)Nc3ccc(OC(F)(F)F)cc3)C(N)=C2C(=O)Nc2c(C)cc(C)cc2C)cc1` (stereo not given), the Potency is reported as inconclusive [inhibitor, full curve, poor fit].
For `COc1ccc(OC)c(CNC(=O)CCn2nc(C)c3c(C)n(-c4ccccc4)nc3c2=O)c1`, the Potency was “inactive”.
With `CC1CCCCN1CC(=O)Nc1ccccc1Sc1ccccc1` (stereo not given) the Potency was inconclusive [inhibitor, single point].
With `COc1ccc(-n2cnnc2SCc2cnc(-c3ccccc3)s2)cc1` the Potency was inconclusive [inhibitor, single point].
For `O=C(c1ccco1)N1CCN(Cc2csc(-c3ccccc3Cl)n2)CC1`, the Potency was “inactive”.
For `O=C(Nc1cccc(Cl)c1N1CCOCC1)c1cccnc1`, the Potency was “inactive”.
In the case of `O=C(COc1cccc2c1CCN(Cc1ccccc1F)C2=O)N1CCOCC1`, the Potency is reported as “inactive”.
In the case of `O=C(CCC1CCCCC1)NCCS(=O)(=O)N1CCN(c2ccccc2F)CC1`, the Potency is reported as inconclusive [inhibitor, single point].
For `O=C(NC(=S)N1CCOCC1)c1cn(-c2ccccc2)nc1-c1ccccc1`, the Potency was inconclusive [inhibitor, partial curve, poor fit].
In the case of `Cc1cc(N2CCN(C)CC2)ccc1NC(=O)c1cccc(S(=O)(=O)N2CCc3ccccc3C2)c1`, the Potency is reported as inconclusive [inhibitor, partial curve].
For `CCCC(=O)N(Cc1cc(=O)[nH]c2ccccc12)c1ccccc1C`, the Potency was inconclusive [inhibitor, single point].
